Laboratory results as given in paper PMC9354671, “Novel interaction interfaces mediate the interaction between the NEIL1 DNA glycosylase and mitochondrial transcription factor A” (Frontiers in Cell and Developmental Biology, 2022).
No constants are given. Whether binding was seen depends on the method and setting. Some entries that bind do so weakly or less than the wild type. For some assays here: Sequences can lack the tags named with a protein.

The chains behind the UniProt entries cited, without tags or fusion partners. Where a name states a change or a piece, a line headed by the entry shows the natural chain unless it says otherwise. A line that says so, or that is headed by a name, gives the form on record, which may keep a tag or linker. Residues count along the entry.
UniProt Q96FI4: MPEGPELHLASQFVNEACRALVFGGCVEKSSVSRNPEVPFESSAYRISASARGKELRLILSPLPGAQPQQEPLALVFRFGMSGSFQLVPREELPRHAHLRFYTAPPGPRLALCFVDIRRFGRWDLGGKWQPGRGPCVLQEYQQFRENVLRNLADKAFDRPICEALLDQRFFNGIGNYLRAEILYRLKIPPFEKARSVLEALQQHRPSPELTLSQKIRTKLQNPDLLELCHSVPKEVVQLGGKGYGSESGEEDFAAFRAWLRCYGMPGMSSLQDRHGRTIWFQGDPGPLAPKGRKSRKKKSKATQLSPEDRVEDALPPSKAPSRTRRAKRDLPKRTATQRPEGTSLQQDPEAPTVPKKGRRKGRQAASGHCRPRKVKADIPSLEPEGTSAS
GST-tagged NEIL1 polypeptide, amino acids 289–390: residues 289-390 of Q96FI4
GST-tagged NEIL1 polypeptide, amino acids 289–349: residues 289-349 of Q96FI4
GST-tagged NEIL1 polypeptide, amino acids 312–390: residues 312-390 of Q96FI4
GST-tagged NEIL1 polypeptide, amino acids 312–349: residues 312-349 of Q96FI4

Legend:
Flag-tagged TFAM = molecular target: T1, Flag-tagged TFAM (UniProt Q00059); assay: pull-down; reverse: Flag-tagged TFAM held on anti-FLAG M2 magnetic beads, NEIL1-FL or NEIL1-Δ100 as prey; with and without DNA; eluted with 3X Flag peptide, SDS-PAGE; both purified
T1 sequence: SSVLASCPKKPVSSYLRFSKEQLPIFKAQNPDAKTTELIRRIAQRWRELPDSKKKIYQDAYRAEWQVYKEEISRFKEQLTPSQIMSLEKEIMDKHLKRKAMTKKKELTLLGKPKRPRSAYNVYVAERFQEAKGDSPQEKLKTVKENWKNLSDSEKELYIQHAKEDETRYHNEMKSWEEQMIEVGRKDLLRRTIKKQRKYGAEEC

[1] = molecular target: full-length NEIL1 (NEIL1-FL), C-terminal His-tagged (human) (UniProt Q96FI4); assay: SEC; NEIL1 and TFAM mixed 1:1, without DNA; Superdex 200; 20 mM HEPES pH 7.5, 300 mM NaCl, 10% glycerol, 1 mM DTT; both purified
[2] = molecular target: full-length NEIL1 (NEIL1-FL), C-terminal His-tagged (human) (UniProt Q96FI4); assay: condition: only 300 mM NaCl, without DNA; 190 µM each; SEC-MALS; SEC-MALS-SAXS in line, NEIL1 and TFAM without DNA; 190 µM each; 25 mM HEPES pH 7.4, 300 mM NaCl, 5% glycerol, 1 mM DTT; both purified
[3] = molecular target: GST-tagged NEIL1 polypeptide, amino acids 289–349 (human) (UniProt Q96FI4); assay: far-Western, overlay or dot blot; 50 pmol NEIL1 polypeptides separated by SDS-PAGE, on PVDF, denatured in 6M guanidine HCl and refolded; incubated with purified TFAM overnight; detected with anti-TFAM antibody; both purified
[4] = molecular target: GST-tagged NEIL1 polypeptide, amino acids 289–390 (human) (UniProt Q96FI4); assay: as above
[5] = molecular target: GST-tagged NEIL1 polypeptide, amino acids 312–390 (human) (UniProt Q96FI4); assay: as above
[6] = molecular target: Flag-tagged, full-length NEIL1 (NEIL1-FL) (human) (UniProt Q96FI4); assay: pull-down; Flag-tagged NEIL1-FL held on anti-FLAG M2 magnetic beads, TFAM as prey; 50 mM Tris-HCl pH 7.5, 10% glycerol, 50–300 mM NaCl/KCl; with and without 22-mer specific DNA or RNA, with and without Benzonase; 4°C; eluted with 3X Flag peptide, SDS-PAGE; both purified
[7] = molecular target: GST-tagged NEIL1 polypeptide, amino acids 312–349 (human) (UniProt Q96FI4); assay: condition: 1 pmol/ml TFAM (methods); 10 pmol/ml; far-Western, overlay or dot blot; 50 pmol NEIL1 polypeptides separated by SDS-PAGE, on PVDF, denatured in 6M guanidine HCl and refolded; incubated with purified TFAM overnight; detected with anti-TFAM antibody; both purified

full-length NEIL1 (NEIL1-FL), C-terminal His-tagged (from UniProt Q96FI4 1-390) (enzyme)
binding (Flag-tagged TFAM): binds weakly

B1: mitochondrial transcription factor A (TFAM) lacking the mitochondrial targeting sequence (natural protein, UniProt Q00059 43-246, looked up)
chain: T1 sequence
notes: theoretical MW 25.6 kDa; Printed domain limits: HMG-box A 43-122, linker 122-152, HMG-box B 152-222, C-terminal tail 222-246; Subcloned into pET30a from a full-length ORF plasmid; also called full-length TFAM monomer (lacking the N-terminal MTS); source: E. coli, purified (as Ngo et al., 2011)
binding [1]: no binding (condition: 300 mM NaCl, without DNA)
binding [2]: no binding
binding [3]: binds weakly
binding [4]: binds weakly
binding [5]: binds weakly
binding [6]: binds weakly
binding [7]: no binding
